The text below walks through data of the supplement of paper PMC9446081.

Out of some 39,000 compounds screened, about 220 (0.56%) showed activity. The list shows a part of the results.
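Further: static incubation at 37 °C against the wild-type strain, values averaged over two biological replicates.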

The assay deals with Escherichia coli K-12 BW25113. Briefly: relative growth (OD600 normalised to plate interquartile mean) (fraction); higher = less growth inhibition, active = 0.2 or less. The conditions noted are these: 50 µM; LB; incubation time: overnight (16-24 h).
As for `C[C@@H]1CCCCO[C@@H](CN(C)S(=O)(=O)c2ccccc2)[C@H](C)CN([C@H](C)CO)C(=O)c2cc(NC(=O)NC3CCCCC3)ccc2O1`, the relative growth was inactive: 1.01. For the compound `CC(=O)NCCCC[C@@H]1NC(=O)[C@@H]2C[C@H](C(=O)NCCCCCN)[C@H](c3cccc(OCCO)c3)N2C1=O`, the relative growth is inactive: 1.03. In the case of `c1ccc2c([C@@H]3CCCN3)cccc2c1`, the relative growth was inactive: 1.01.

Consider `C=CCCCCCCCCCCCC(O)CC(O)CO` (configuration not stated), for which the relative growth was inactive: 0.971.

As to `CN1C(=O)c2cc(NC(=O)c3cccc(C#N)c3)ccc2OC[C@H]2O[C@@H](CC(=O)NCCN3CCCC3)CC[C@@H]21`, the relative growth was inactive: 0.967. In the case of `C[C@@H]1CN([C@H](C)CO)C(=O)c2ccccc2-c2ccccc2CO[C@H]1CN(C)S(=O)(=O)c1cn(C)cn1` it was inactive: 0.934. Take `C[C@H](CO)N1C[C@H](C)[C@H](CN(C)Cc2ccc(C(=O)Nc3ccccc3N)cc2)Oc2ccc(NC(=O)C3CCCCC3)cc2CC1=O`: the relative growth is inactive: 0.999.

`C[C@@H]1CN([C@@H](C)CO)C(=O)c2cc(NC(=O)Cc3ccccc3)ccc2O[C@H]1CN(C)Cc1ccc(-c2ccccc2)cc1`: the relative growth was inactive: 1.02. With `C[C@H](CO)N1C[C@H](C)[C@H](CN(C)C(=O)Nc2ccc3c(c2)OCO3)OCCCC[C@H](C)Oc2ccc(NC(=O)Cc3ccccc3)cc2C1=O` the figure was inactive: 0.991; with `COC(=O)C[C@H]1CC[C@@H]2[C@H](COc3ccc(NS(=O)(=O)c4ccccc4Cl)cc3C(=O)N2C)O1`, inactive: 1.01. `COc1cccc(S(=O)(=O)Nc2ccc3c(c2)[C@@H]2C[C@@H](CC(=O)NC4CCCCC4)O[C@@H](CO)[C@@H]2O3)c1`: the relative growth was inactive: 0.986. With `C[C@H](CO)N1C[C@H](C)[C@@H](CN(C)S(=O)(=O)c2cn(C)cn2)Oc2ccc(NC(=O)C3CCCCC3)cc2CC1=O` the figure was inactive: 1.01. In the case of `C[C@H](CO)N1C[C@H](C)[C@@H](CN(C)Cc2ccc3c(c2)OCO3)Oc2ccc(NC(=O)Cn3cnnn3)cc2CC1=O` it was inactive: 0.975; in that of `C[C@H](CO)N1C[C@H](C)[C@H](CN(C)Cc2ccc(C(F)(F)F)cc2)OCCCC[C@H](C)Oc2ccc(NC(=O)Nc3ccc4c(c3)OCO4)cc2C1=O`, inactive: 1.

With `CO[C@@H]1CN(C)C(=O)c2ccc(NC(=O)Nc3cccc(Cl)c3)cc2OC[C@H](C)N(C(=O)Nc2c(C)noc2C)C[C@@H]1C`, the relative growth is inactive: 0.985. In the case of `Cc1ccc(S(=O)(=O)N(C)C[C@H]2Oc3ccc(NC(=O)Nc4cccc5ccccc45)cc3C(=O)N([C@@H](C)CO)C[C@H]2C)cc1` it was inactive: 1.02. Regarding `COc1ccc(S(=O)(=O)Nc2ccc3c(c2)CC(=O)N([C@H](C)CO)C[C@H](C)[C@@H](CN(C)S(C)(=O)=O)O3)cc1`, the relative growth is inactive: 0.986. `CCCCC/C=C\C/C=C\CCCCCCCC(=O)O[C@H](COC(=O)CCCCCCCCCCCCCCC)COP(=O)(O)OCC[N+](C)(C)C`: the relative growth is inactive: 0.99. For `C[C@@H]1CCCCO[C@@H](CN(C)C(=O)Cc2ccccc2)[C@H](C)CN([C@@H](C)CO)C(=O)c2cc(NS(=O)(=O)c3ccc(F)cc3)ccc2O1`, the relative growth is inactive: 0.997. With `C[C@@H]1CCCCO[C@@H](CN(C)C(=O)Nc2ccc3c(c2)OCO3)[C@H](C)CN([C@@H](C)CO)C(=O)c2cc(NS(=O)(=O)c3ccc(F)cc3)ccc2O1` the figure was inactive: 1.04; with `C=CC1=C(C(=O)O)N2C(=O)[C@@H](NC(=O)/C(=N\O)c3csc(N)n3)[C@H]2SC1`, active: 0.0321.

As for `CC1(C)SC2C(N3C(=O)C(c4ccccc4)NC3(C)C)C(=O)N2C1C(=O)[O-].[K+]` (configuration not stated), the relative growth was active: 0.0443. As for `C[C@@H]1CCCCO[C@@H](CN(C)Cc2ccc(C(=O)O)cc2)[C@@H](C)CN([C@@H](C)CO)C(=O)c2cc(NC(=O)Nc3cccc4ccccc34)ccc2O1`, the relative growth is inactive: 0.983. For `C[C@H](CO)N1C[C@H](C)[C@@H](CN(C)C(=O)c2ccccc2F)Oc2ncc(C#Cc3ccncc3)cc2C1=O`, the relative growth is inactive: 0.985. With `Cc1ccc(S(=O)(=O)Nc2ccc3c(c2)CC(=O)N([C@@H](C)CO)C[C@H](C)[C@H](CN(C)C(=O)NC(C)C)O3)cc1` the figure was inactive: 0.976; with `C[C@H](CO)N1C[C@H](C)[C@H](CN(C)C(=O)Nc2ccc3c(c2)OCO3)Oc2ncc(-c3cccnc3)cc2C1=O`, inactive: 0.95. With `C[C@@H]1CCCCO[C@H](CN(C)C(=O)Nc2ccc3c(c2)OCO3)[C@@H](C)CN([C@H](C)CO)C(=O)c2cc(NS(=O)(=O)c3cccs3)ccc2O1` the figure was inactive: 0.997. As to `C/C(=C/C(=O)N1CCN(C)CC1)C(=O)O`, the relative growth is inactive: 1.01. `COc1ccc(CN(C)C[C@H]2Oc3ccc(NC(=O)Nc4cccc5ccccc45)cc3C(=O)N([C@@H](C)CO)C[C@H]2C)cc1`: the relative growth is inactive: 1.01.

Take `COc1ccc(NC(=O)Nc2ccc3c(c2)C(=O)N([C@H](C)CO)C[C@H](C)[C@@H](CN(C)C(=O)C2CCCCC2)OCCCC[C@@H](C)O3)cc1`: the relative growth was inactive: 1.01. In the case of `C[C@@H]1CCCCO[C@H](CN(C)C)[C@@H](C)CN([C@@H](C)CO)C(=O)c2cc(NC(=O)Nc3cccc4ccccc34)ccc2O1` it was inactive: 1.01. `CCCN(C)C[C@H]1OCCCC[C@@H](C)Oc2ccc(NC(=O)CCC(F)(F)F)cc2C(=O)N([C@@H](C)CO)C[C@H]1C`: the relative growth was inactive: 1.02. In the case of `C[C@@H]1CN([C@@H](C)CO)C(=O)c2cc(NC(=O)CCCCCC(=O)Nc3ccccc3N)ccc2O[C@@H]1CN(C)C(=O)Nc1ccccc1`, the relative growth is inactive: 0.994. As to `Cc1noc(C)c1NC(=O)N(C)C[C@@H]1Oc2cc(C#CCN(C)C)ccc2S(=O)(=O)N([C@@H](C)CO)C[C@@H]1C`, the relative growth was inactive: 0.942. In the case of `C[C@H](CO)N1C[C@H](C)[C@H](CN(C)C(=O)Cc2ccncc2)Oc2cc(-c3cncnc3)ccc2S1(=O)=O` it was inactive: 1.03; in that of `C[C@@H]1CN([C@@H](C)CO)S(=O)(=O)c2ccc(Br)cc2O[C@H]1CN(C)C(=O)c1ccccc1F`, inactive: 0.987; in that of `CN1[C@@H]2Cn3c(ccc(-c4ccccc4)c3=O)[C@H]1[C@@H](C(=O)NCCCN1CCOCC1)[C@@H]2CO`, inactive: 1.
